The text below walks through data of paper PMC4336329 (PLoS ONE, 2015).

Structures are written as SMILES. The campaign covered roughly 310,000 compounds. About 14,000 (4.5%) showed an effect of 50% or more. Effects have a minus sign here. This is one part of the list. *1 amine or outer side, *2 acyl side, *3 side chain or, on linkers, in order; H or OH if unused. Where a SMILES comes first, the peptide text is derived from it. The star is where a group is joined. CO = O=C([*:1])[*:2]; NHPh = c1ccc(N*)cc1
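Further: peak tail current of the secondary pulse compared with the same well before compound.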

The test deals with human ether-à-go-go-related gene (hERG) potassium channel (human, UniProt Q12809). In words: primary screen, population patch clamp on CHO cells stably expressing hERG.
Chain of human ether-à-go-go-related gene (hERG) potassium channel (Q12809 whole entry, looked up): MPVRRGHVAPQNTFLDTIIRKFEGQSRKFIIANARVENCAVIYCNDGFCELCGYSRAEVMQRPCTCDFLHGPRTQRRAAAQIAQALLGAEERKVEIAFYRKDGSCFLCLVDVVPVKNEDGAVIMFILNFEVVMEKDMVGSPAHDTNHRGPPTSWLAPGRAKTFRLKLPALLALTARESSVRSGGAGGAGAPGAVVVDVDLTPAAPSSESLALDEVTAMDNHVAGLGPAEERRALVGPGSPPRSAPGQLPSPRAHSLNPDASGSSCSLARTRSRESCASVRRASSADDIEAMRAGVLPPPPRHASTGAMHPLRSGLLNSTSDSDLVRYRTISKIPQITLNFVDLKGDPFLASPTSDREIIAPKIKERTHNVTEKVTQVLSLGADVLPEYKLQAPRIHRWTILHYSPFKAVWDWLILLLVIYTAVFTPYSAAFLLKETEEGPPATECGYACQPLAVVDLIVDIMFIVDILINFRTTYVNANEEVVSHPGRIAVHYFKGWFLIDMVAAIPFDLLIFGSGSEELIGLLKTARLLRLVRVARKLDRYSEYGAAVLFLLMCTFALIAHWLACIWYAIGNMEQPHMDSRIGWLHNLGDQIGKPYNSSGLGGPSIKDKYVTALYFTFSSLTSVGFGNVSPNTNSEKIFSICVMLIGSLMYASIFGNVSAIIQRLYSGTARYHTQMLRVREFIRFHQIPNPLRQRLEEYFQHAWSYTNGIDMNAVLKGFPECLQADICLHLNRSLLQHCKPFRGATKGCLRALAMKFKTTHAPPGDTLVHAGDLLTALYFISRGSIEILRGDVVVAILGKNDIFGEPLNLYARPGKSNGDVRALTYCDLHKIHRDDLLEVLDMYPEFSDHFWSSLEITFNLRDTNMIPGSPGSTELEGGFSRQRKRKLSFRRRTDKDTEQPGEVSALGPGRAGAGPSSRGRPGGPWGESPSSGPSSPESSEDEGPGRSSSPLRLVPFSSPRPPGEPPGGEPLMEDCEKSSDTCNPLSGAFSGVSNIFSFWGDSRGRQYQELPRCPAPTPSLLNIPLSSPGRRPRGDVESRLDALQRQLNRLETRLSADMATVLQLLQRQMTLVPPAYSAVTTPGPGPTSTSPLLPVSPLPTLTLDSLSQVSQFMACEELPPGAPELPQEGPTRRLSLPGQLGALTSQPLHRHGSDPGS
Turning to `Cc1cc(NC(=O)COC(=O)C2CCC(=O)N2)c([N+](=O)[O-])cc1C` (centres unmarked), the “hERG current change (%, negative = inhibition) at 10uM” value was found to be 15.4%. Then `CC(=O)n1nc(-c2ccc(Cl)cc2)nc1NCc1ccco1`, with 5.77%; and `O=C(O)c1cccc(CN2C(=O)SC(Nc3ccccc3)C2=O)c1` (centres unmarked), with 2.16%. Consider `O=C(Nc1cccc(Cl)c1)Nc1nnc(-c2ccccc2)o1`, for which the “hERG current change (%, negative = inhibition) at 10uM” value worked out at 3.18%. For `CCOC(=O)c1csc(NC(=O)COc2ccc(Cl)cc2Cl)n1`, the “hERG current change (%, negative = inhibition) at 10uM” value is -12.6%.

Turning to `CSCCC(NS(=O)(=O)c1ccc(Cl)cc1)C(=O)OCC(=O)c1c(C)[nH]c2ccccc12` (centres unmarked), the “hERG current change (%, negative = inhibition) at 10uM” value was found to be 4.09%.

With `CCn1c2ccccc2c2nnc(SCC(=O)OCN3C(=O)c4ccccc4C3=O)nc21`, the “hERG current change (%, negative = inhibition) at 10uM” value is given as -3.64%. With `CCOC(=O)c1cn[nH]c1C(F)(F)F` the figure was 9.82%; with `Cc1ccccc1NCCNc1ccccc1C`, -7.95%.

With `CCCc1cc(C(=O)Nc2cc(OC)c(Cl)cc2OC)no1`, the “hERG current change (%, negative = inhibition) at 10uM” value is recorded as 23.6%. Take `C=CCN(C(=O)c1csnn1)C(C(=O)NCc1ccc(F)cc1)c1ccc(F)cc1` (centres unmarked): the “hERG current change (%, negative = inhibition) at 10uM” value is -21.8%. With `Cc1ccc(C(=O)Nc2cccnc2)cc1NC(=O)c1ccco1` the figure was 0.198%; with `CCOC(=O)C1(Cc2cccc(OC)c2)CCCN(S(=O)(=O)c2cccnc2)C1` (centres unmarked), -5.5%.

With `CCc1nnc(NC(=O)c2ccc(NC(=O)C(C)C)cc2)s1`, the “hERG current change (%, negative = inhibition) at 10uM” value was 13.6%. With `CSc1cccc(NC(=O)CC(C)n2ccnc2)c1` (centres unmarked) the figure was 6.56%; with `CCC(=O)N(Cc1ccc(C)cc1)Cc1cc2cc3c(cc2[nH]c1=O)OCO3`, -2.24%; with `COCCNC(=O)Cn1cnc2c(cnn2-c2ccc(C)cc2)c1=O`, -4.98%. Then `O=C(c1ccc(Br)cc1)N(c1ccccn1)C1CCCCC1`, with -8.55%; and `Cc1cc(NC(=O)C2CCCCC2)nc2c1c(=O)oc1ccccc12`, with 3.61%. `CC(CCc1ccccc1)NC(=O)c1ccc(F)cc1` (centres unmarked): the “hERG current change (%, negative = inhibition) at 10uM” value was 1.77%. Then `COc1cccc(CC2(CO)CCCN(Cc3ccc(CO)o3)C2)c1` (centres unmarked), with -7.04%; and `O=C(c1ncc[nH]1)c1ccccc1C(=O)N1CCOCC1`, with 10.1%; and `CCc1ccccc1NC(=O)c1nnn(CC(=O)Nc2cccc(C)c2)c1N`, with -0.998%. Consider `Cc1ccc(C)c(NNC(=O)C(=O)NNc2cc(C)ccc2C)c1`, for which the “hERG current change (%, negative = inhibition) at 10uM” value came to 21.4%. Regarding `O=C(Nc1ccc(N2CCN(C(=O)c3ccccc3)CC2)cc1)c1ccc2c(c1)OCCO2`, the “hERG current change (%, negative = inhibition) at 10uM” value was 1.43%.

`CCCn1c(=O)c(-c2ccccc2)c(O)c2ccccc21`: the “hERG current change (%, negative = inhibition) at 10uM” value turned out to be 14.6%. Turning to `CN(C)C(=O)CSc1n[nH]c(-c2ccco2)n1`, the “hERG current change (%, negative = inhibition) at 10uM” value stood at 15.9%. Then `Cc1nnnn1/C(=C\c1ccccc1)C(=O)OCC(=O)NC1CCCCC1`, with -3.81%.

`COC(=O)c1c(C)[nH]c(C)c1C(C)=O`: the “hERG current change (%, negative = inhibition) at 10uM” value is 9.23%. As for `COc1ccc(C(=O)CSc2nc3ccccc3n2CC(=O)NC(C)(C)C)cc1`, the “hERG current change (%, negative = inhibition) at 10uM” value is recorded as -12.3%. In the case of `O=S(=O)(NCc1ccc2c(c1)OCO2)c1cccc(S(=O)(=O)N2CCOCC2)c1`, the “hERG current change (%, negative = inhibition) at 10uM” value was determined as 10.6%.

For `NNC(=S)NCc1ccccc1`, the “hERG current change (%, negative = inhibition) at 10uM” value is recorded as 9.98%. Then `O=C(Nc1c(Cl)ccc2nsnc12)c1ccco1`, with 12.4%. Then `O=C(COC(=O)C1CCC(=O)N1)Nc1cc(Cl)ccc1Cl` (centres unmarked), with 6%. `CCOC(=O)C(C)N1C(=O)S/C(=C\c2ccc(-c3ccccc3C(=O)O)o2)C1=O` (centres unmarked): the “hERG current change (%, negative = inhibition) at 10uM” value worked out at 20%.

On to `CC(=O)c1ccc(NC(=O)CSc2ccc(-c3ccc4c(c3)OCO4)nn2)cc1`, for which the “hERG current change (%, negative = inhibition) at 10uM” value is listed as 5.55%. Then `CN(C(=O)c1ccco1)C1(c2ccccc2Cl)CCCCC1=O` (centres unmarked), with 10.1%; and `O=C(Nc1ccc2c(c1)OCO2)C1CCCN(S(=O)(=O)Cc2ccccc2)C1` (centres unmarked), with -2.41%; and `O=C(NCc1ccc(Cl)cc1)C(=O)NCC1CCCN1S(=O)(=O)c1cccs1` (centres unmarked), with -22.7%. With `CCc1ccc(CNC(=O)CCn2ccc3cc(S(=O)(=O)N4CCCC4)ccc32)cc1` the figure was -9.2%; with `O=C(Nc1nccs1)c1ccccc1N=Cc1ccccc1`, -1.38%; with `C/C(CCc1ccccc1)=N\NC(=O)COc1ccccc1C`, -9.5%. Regarding `C=CCSc1nc(C)cc2c1C(=O)OC2`, the “hERG current change (%, negative = inhibition) at 10uM” value is 6.64%. With `O=C(Nc1cccc(C(F)(F)F)c1)NC1CCN(S(=O)(=O)c2ccc(F)cc2)CC1` the figure was 12.2%. As to `Cc1ccc2c(c1)N(C(=O)CCC(=O)N1CCC3(CC1)OCCO3)CC(C)O2` (centres unmarked), the “hERG current change (%, negative = inhibition) at 10uM” value came out at 14.5%. In the case of `O=C(COC(=O)c1ccccn1)NCc1cccs1`, the “hERG current change (%, negative = inhibition) at 10uM” value is reported as -16.3%. Then `CCCn1cnc2cc(NCc3ccccc3O)ccc21`, with -0.21%; and `CSc1ccccc1C(=O)NCc1cccnc1`, with 5.77%; and `Cc1nc(C)c(-c2ccccc2)c(=O)[nH]1`, with 18%. Regarding `Cc1nn(-c2cc(N3CCCCC3)ccc2N)c(=O)c2ccccc12`, the “hERG current change (%, negative = inhibition) at 10uM” value is -1.51%.

In the case of `CC(C)(C)N1NC(=O)Nc2ccccc2C1=O`, the “hERG current change (%, negative = inhibition) at 10uM” value is -5.55%. Take `CC(C)CN(CC(C)C)C(=O)CCCC(=O)N(CC(C)C)CC(C)C`: the “hERG current change (%, negative = inhibition) at 10uM” value is recorded as -6.3%.

`COc1ccc(/C=C(\NC(=O)c2ccc(Cl)cc2)C(=O)NCC2CCCO2)cc1OC` (centres unmarked): the “hERG current change (%, negative = inhibition) at 10uM” value worked out at 0.622%.

As to `O=C(CN1C(=O)C2CC=CCC2C1=O)NC1=NCCS1` (centres unmarked), the “hERG current change (%, negative = inhibition) at 10uM” value turned out to be 7.35%.

Consider `Cc1sc(NC(=O)CSc2nnnn2C)c(C#N)c1C`, for which the “hERG current change (%, negative = inhibition) at 10uM” value is given as -8.76%. Turning to `CCn1c(SCC(=O)N2CCN(c3ccccc3F)CC2)nnc1-c1ccoc1C`, the “hERG current change (%, negative = inhibition) at 10uM” value is reported as -28.2%. Then `N/C(Cc1ccc([N+](=O)[O-])cc1)=N\OC(=O)c1ccco1`, with -26.8%; and `COC(=O)c1ccc(COc2cc(C)cc3oc(=O)c4c(c23)CCCC4)o1`, with 12.6%. On to `CN(/N=C/C=C/c1ccccc1)C1=NS(=O)(=O)c2ccccc21`, for which the “hERG current change (%, negative = inhibition) at 10uM” value is 4.8%. On to `CCn1cc(SCC(N)=O)c2ccccc21`, for which the “hERG current change (%, negative = inhibition) at 10uM” value came to 2.49%. With `COc1ccc(C(=O)OC(C(=O)c2ccccc2)c2ccccc2)cc1` (centres unmarked) the figure was 3.44%; with `Cc1csc(=O)n1CCC(=O)O`, 17.3%; with `O=C(Nc1ccccc1NC(=O)c1c(F)cccc1F)c1c(F)cccc1F`, 25.4%. With `Clc1ccc(C[n+]2cc(-c3ccc(Cl)cc3)n3c2CCC3)cc1.[Cl-]` the figure was -61.9%; with `Cc1ccc2nccc(C(=O)N3CCCC(Nc4ccc(C)c(C)c4)C3)c2c1` (centres unmarked), -14.3%. With `CCOC(=O)c1cnc2ccccc2c1Nc1cc(C(=O)O)ccc1C` the figure was 14.9%; with `O=C(O)C1CC(=O)N(Cc2cccnc2)C1` (centres unmarked), 3.95%. `COc1ccc(N(CC(=O)N2CCN(c3ccc(Cl)cc3)CC2)S(=O)(=O)c2c(C)noc2C)cc1`: the “hERG current change (%, negative = inhibition) at 10uM” value was -12.2%. Then `CCCCCCSc1nsc(NC(=O)CCC)n1`, with 10.6%; and `O=C(Nc1cccc2ccccc12)N1CC=C(c2ccccc2)CC1`, with 19.7%. With `CCC(=O)NC(=S)Nc1ccc(NC(=O)c2ccco2)cc1`, the “hERG current change (%, negative = inhibition) at 10uM” value is 12.1%. Then `O=C(NCc1ccco1)c1ccc(CS(=O)(=O)Cc2ccc(F)cc2)o1`, with -18.7%; and `COC(CNC(=O)c1ccc2c(c1)ncn2C1CCCCCC1)OC`, with 4.09%. With `O=C(CSc1ccccc1)Nc1ccc2sccc2c1` the figure was 10.3%. Then `COc1ccc(C2=NN(C(=O)c3cccs3)C(c3ccccc3OC)C2)cc1OC` (centres unmarked), with -0.915%; and `OCC[C@H]1C[C@@H](O)[C@H](O)[C@@]2(Cc3ccccc3CO2)O1`, with 10%; and `O=C(CCC1CCN(C(=O)c2cncs2)CC1)Nc1ccccc1`, with -4.83%. As for `CCCNC1=C(N(C(C)=O)c2cccc(F)c2)C(=O)c2ccccc2C1=O`, the “hERG current change (%, negative = inhibition) at 10uM” value is 5.26%.

`O=C(CCn1cnc2ccccc2c1=O)Nc1ccc(S(=O)(=O)N2CCCCC2)cc1`: the “hERG current change (%, negative = inhibition) at 10uM” value amounted to 5.86%. Regarding `O=C(N/N=C/c1ccc(Br)s1)c1ccc([N+](=O)[O-])cc1`, the “hERG current change (%, negative = inhibition) at 10uM” value was 17%.

On to `COc1ccc(NC(=O)C2CC3CCC2C3)c(OC)c1` (centres unmarked), for which the “hERG current change (%, negative = inhibition) at 10uM” value is on record as -6.88%. For the compound `O=C(NCCN1CCOCC1)c1cc(-c2ccccc2Cl)on1`, the “hERG current change (%, negative = inhibition) at 10uM” value was 4.93%. `COc1ccc(C(=O)Oc2ccc(C(C)=O)cc2)c(OC)c1`: the “hERG current change (%, negative = inhibition) at 10uM” value came to 1.72%. With `COc1ccc(C(=O)Nc2nc3ccccc3s2)cc1OC` the figure was -65.8%; with `O=C(CN(Cc1ccc(F)cc1)C(=O)CNS(=O)(=O)c1ccccc1)NCc1ccco1`, -6.75%. As for `COC(=O)CNC(=O)CNC(=O)Nc1ccccc1` ({NHPh-CO}-Gly-Gly-OMe), the “hERG current change (%, negative = inhibition) at 10uM” value is -0.958%. With `CCc1ccc(C(=O)NNC(=S)Nc2ccc(S(N)(=O)=O)cc2)s1` the figure was 16.6%. As for `COc1ccccc1NC(=O)CSc1nc(O)c(Cc2ccccc2)c(=O)[nH]1`, the “hERG current change (%, negative = inhibition) at 10uM” value is 9.93%.

In the case of `CCCCc1ccc(NC(=O)CSCc2cc(=O)[nH][nH]2)cc1`, the “hERG current change (%, negative = inhibition) at 10uM” value is -11.6%.

Regarding `CC1(C)CC(=O)C=C(Nc2ccc(C(=O)O)cc2)C1`, the “hERG current change (%, negative = inhibition) at 10uM” value is given as 14.7%.

In the case of `COc1cc(NC(=O)c2sc3ncn(CC(=O)N4CCC(C)CC4)c(=O)c3c2C)cc(OC)c1OC`, the “hERG current change (%, negative = inhibition) at 10uM” value came to 3.73%. With `[N-]=[N+]=NC[C@H](Cc1ccccc1)N1CCN(Cc2ccccc2)CCC1=O` the figure was 3.9%.
